Source: ChEMBL document CHEMBL5042521, “A Structure-based Design Approach for Generating High Affinity BRD4 D1-Selective Chemical Probes” (J Med Chem, 2022)
pIC50: −log10 of the molar value.

These compounds were tested against Bromodomain-containing protein 2 (Homo sapiens, UniProt P25440).
Bromodomain-containing protein 2, sequence (P25440 whole entry): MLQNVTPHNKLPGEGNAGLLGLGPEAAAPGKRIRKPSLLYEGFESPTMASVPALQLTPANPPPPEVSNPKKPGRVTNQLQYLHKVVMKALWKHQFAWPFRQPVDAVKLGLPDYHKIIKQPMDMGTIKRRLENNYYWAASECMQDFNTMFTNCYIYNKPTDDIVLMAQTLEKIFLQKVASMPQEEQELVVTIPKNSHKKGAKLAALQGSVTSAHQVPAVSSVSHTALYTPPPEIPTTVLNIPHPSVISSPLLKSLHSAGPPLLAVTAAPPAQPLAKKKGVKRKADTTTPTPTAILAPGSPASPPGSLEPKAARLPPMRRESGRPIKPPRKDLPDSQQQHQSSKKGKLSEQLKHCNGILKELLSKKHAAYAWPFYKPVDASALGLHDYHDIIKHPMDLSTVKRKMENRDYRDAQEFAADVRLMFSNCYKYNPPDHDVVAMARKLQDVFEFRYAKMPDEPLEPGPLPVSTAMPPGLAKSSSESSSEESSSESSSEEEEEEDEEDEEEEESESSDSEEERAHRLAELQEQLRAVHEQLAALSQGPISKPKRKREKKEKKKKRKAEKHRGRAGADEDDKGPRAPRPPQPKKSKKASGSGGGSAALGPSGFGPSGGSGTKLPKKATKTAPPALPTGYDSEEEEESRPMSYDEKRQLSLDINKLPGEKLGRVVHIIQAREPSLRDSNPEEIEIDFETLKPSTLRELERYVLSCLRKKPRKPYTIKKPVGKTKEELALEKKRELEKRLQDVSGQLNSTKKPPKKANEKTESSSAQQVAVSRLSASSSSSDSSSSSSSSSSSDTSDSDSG
`Cc1ccc(C(C)C)cc1Oc1nccc(-c2c(-c3ccc(C(F)(F)F)cc3)ncn2[C@H]2CCN(CCN(C)C)C2)n1` was tested, and the pIC50 was over 4.30. `Cc1ccc(C(C)C)cc1Oc1nccc(-c2c(-c3ccc(C(F)(F)F)cc3)ncn2C2CCN(CCN(C)C)CC2)n1` showed a pIC50 of over 4.30.

The compounds below were run against T1, Bromodomain-containing protein 4 (Homo sapiens, UniProt O60885).
`CCc1cc(C)cc(Oc2nccc(-c3c(-c4ccc(C(F)(F)F)cc4)ncn3[C@H]3CCNC3)n2)c1` was tested, and the pIC50 was 5.96. Compound `Ic1ccc(-c2ncn(C3CCNCC3)c2-c2ccnc(Oc3ccc4c(c3)OCO4)n2)cc1` has a pIC50 of 5.57. Work on `Cc1cccc(Oc2nccc(-c3c(-c4ccc(I)cc4)ncn3C3CCNCC3)n2)c1` yielded a pIC50 of 6.30. `Cc1cc(C)cc(Oc2nccc(-c3c(-c4ccc(I)cc4)ncn3[C@@H]3CCN(CCN)C3)n2)c1` showed a pIC50 of 6.59. With `CCc1cc(C)cc(Oc2nccc(-c3c(-c4ccc(C(F)(F)F)cc4)ncn3C3CCNCC3)n2)c1` the pIC50 was 6.44. `Cc1cc(C)cc(Oc2nccc(-c3c(-c4ccc(I)cc4)ncn3[C@H]3CCN(CCN)C3)n2)c1` was tested, and the pIC50 was 7.00. For `Cc1ccc(C)c(Oc2nccc(-c3c(-c4ccc(I)cc4)ncn3C3CCNCC3)n2)c1`, the pIC50 was 6.57. With `Cc1ccc(C(C)C)cc1Oc1nccc(-c2c(-c3ccc(C(F)(F)F)cc3)ncn2C2CCN(CCN(C)C)CC2)n1` the pIC50 was over 7.04. Compound `Cc1cc(C)cc(Oc2nccc(-c3c(-c4ccc(I)cc4)ncn3[C@@H]3CCNC3)n2)c1` has a pIC50 of 5.72. `Cc1ccc(C(C)C)cc1Oc1nccc(-c2c(-c3ccc(C(F)(F)F)cc3)ncn2[C@@H]2CCNC2)n1` gave a pIC50 of 5.42. `CCc1cc(C)cc(Oc2nccc(-c3c(-c4ccc(C(F)(F)F)cc4)ncn3[C@H]3CCN(CCN(C)C)C3)n2)c1` showed a pIC50 of 6.96. Compound `Clc1cc(Cl)cc(Oc2nccc(-c3c(-c4ccc(I)cc4)ncn3C3CCNCC3)n2)c1` has a pIC50 of 6.37. With `Cc1ccc(C(C)C)cc1Oc1nccc(-c2c(-c3ccc(C(F)(F)F)cc3)ncn2[C@H]2CCNC2)n1` the pIC50 was 6.06. `Cc1cc(C)cc(Oc2nccc(-c3c(-c4ccc(I)cc4)ncn3[C@H]3CCNC3)n2)c1` was tested, and the pIC50 was 5.96.

The compounds below were run against Bromodomain-containing protein 3 (Homo sapiens, UniProt Q15059).
Bromodomain-containing protein 3, sequence (Q15059 whole entry): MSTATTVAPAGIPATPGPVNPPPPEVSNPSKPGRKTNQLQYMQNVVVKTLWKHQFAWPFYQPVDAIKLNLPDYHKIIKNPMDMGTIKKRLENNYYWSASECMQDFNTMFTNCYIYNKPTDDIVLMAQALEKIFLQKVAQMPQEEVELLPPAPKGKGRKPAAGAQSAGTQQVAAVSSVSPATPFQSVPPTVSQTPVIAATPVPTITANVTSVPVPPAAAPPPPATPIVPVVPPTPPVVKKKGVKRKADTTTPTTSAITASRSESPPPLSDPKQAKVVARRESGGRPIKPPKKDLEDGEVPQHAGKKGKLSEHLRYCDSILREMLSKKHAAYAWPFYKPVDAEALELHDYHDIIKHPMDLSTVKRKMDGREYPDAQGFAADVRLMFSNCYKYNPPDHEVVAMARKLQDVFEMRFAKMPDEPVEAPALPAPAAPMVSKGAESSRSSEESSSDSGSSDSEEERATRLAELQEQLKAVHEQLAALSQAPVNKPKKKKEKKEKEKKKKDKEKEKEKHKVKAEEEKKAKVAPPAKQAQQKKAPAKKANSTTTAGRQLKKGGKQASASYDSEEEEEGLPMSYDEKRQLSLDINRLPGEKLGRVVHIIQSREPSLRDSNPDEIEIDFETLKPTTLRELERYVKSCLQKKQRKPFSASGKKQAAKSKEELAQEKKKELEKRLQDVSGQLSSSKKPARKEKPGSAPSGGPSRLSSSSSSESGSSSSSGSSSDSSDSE
`Cc1ccc(C(C)C)cc1Oc1nccc(-c2c(-c3ccc(C(F)(F)F)cc3)ncn2[C@H]2CCN(CCN(C)C)C2)n1` was tested, and the pIC50 was over 4.30. `Cc1ccc(C(C)C)cc1Oc1nccc(-c2c(-c3ccc(C(F)(F)F)cc3)ncn2C2CCN(CCN(C)C)CC2)n1` was tested, and the pIC50 was over 4.30.

Target: T1, Bromodomain-containing protein 4
Remark: another data set of the same source
Compound `Cc1ccc(C(C)C)cc1Oc1nccc(-c2c(-c3ccc(C(F)(F)F)cc3)ncn2C2CCN(CCN(C)C)CC2)n1` has a pIC50 of over 4.30.
